Test results taken from ChEMBL document CHEMBL4888484, “Replenishing the malaria drug discovery pipeline: Screening and hit evaluation of the MMV Hit Generation Library 1 (HGL1) against asexual blood stage Plasmodium falciparum ,using a nano luciferase reporter read-out” (2022).
In all, about 150,000 compounds went through this assay and about 540 (0.36%) showed an effect of 50% or more. The list shows a part of the results.

tested on: Plasmodium falciparum; assay: Primary screen in NF54 nanoGlo assay, in single point, at 2uM, 72h; a lower Z score goes with more inhibition; assay type: functional, Erythrocyte; conditions: timepoint 72 hour

SMILES	% Inhibition	Z score
CCc1noc(NC(C)=O)c1-c1ccc(OC)c(S(=O)(=O)NCc2cccc(OC)c2)c1	1%	-0.09
O=C(Nc1ccc2c(c1)OCO2)N(Cc1ccco1)C[C@H]1CCCO1	-4%	0.54
CCN(CC)CCOc1ccc2nc(N(C)C)sc2c1 [DIAMTHAZOLE]	-15%	1.86
CN(C(=O)Cc1cnn(C)c1)c1ccc(N2CCOCC2)nc1	-3%	0.35
O=C(C1CCCC1)N1CC[C@@]2(CCCN(CC3CC3)C2=O)C1	-13%	1.93
CCN1C[C@@H](CN(C)C(=O)c2cc(Cn3nc(C)cc3C)[nH]n2)CC1=O	4%	-0.55
N#Cc1ccccc1OC1CCC(N)CC1 (stereo not given)	-5%	0.68
Cc1cccc(NC(=O)Cn2c(C)cc(C)c2-c2nc(C(C)C)no2)c1	-8%	1.06
Nc1nc(CCCNCc2ccc(Cl)o2)cs1	-25%	2.72
COc1ccc2c(c1)N(C(=O)CCn1cc(C)cn1)[C@@H](C)C(=O)N2	-13%	1.97
CN(C)CCN(C(=O)c1ccsc1)C1CCOCC1	-13%	2.38
CCOC[C@H]1CCCN1C(=O)Nc1ccc(Cl)c(C(=O)OCC)c1	-3%	0.65
CC1CCN(C(=O)COC(=O)CCC2NC(=O)NC2=O)C2CCCCC12 (stereo not given)	-16%	1.74
Cc1nn(C)cc1NC(=O)N[C@@H](C)Cc1ccsc1	-4%	0.48
C=CCn1nc(C(=O)O)c2c1CC[C@H](N(C)Cc1noc(CC)n1)C2	1%	-0.11
COCc1nc(NC(=O)CCc2nc3cccnc3[nH]2)n[nH]1	5%	-0.54
CCN(c1ccc(C(=O)N[C@@H](C(=O)OC)c2ccc(OC)c(O)c2)cc1)C(C)C	-8%	1.28
COc1ccc(Cl)cc1C(=O)N1CCC[C@H](c2ccn(C)n2)C1	-1%	0.12
CC(C)CN1C[C@H](CNS(=O)(=O)c2cccnc2)OCC1=O	0%	-0.02
Cc1ccc(OCC(=O)N2CCC[C@H]2c2cccs2)cn1	7%	-0.67
CN(Cc1ccc[nH]1)C(=O)[C@@]1(C)CC1(F)F	-20%	3.07
CCOc1ccc(NC(=O)N2CCC[C@H]2c2nc3cc(-c4ccccc4C(F)(F)F)ccc3o2)cc1	5%	-0.66

SMILES	% Inhibition	Z score
CCN(C)C(=O)c1cc(-c2ccc(C3CCCCC3)cc2)on1	-10%	0.96
CCCn1cc(C(=O)N(C)C[C@H]2CCOC2)c(C)n1	11%	-1.56
COCCN(CCOC)C1CN(C(=O)OCCCF)C1	-4%	0.62
CC1(C)[C@@H]2CC[C@]13CS(=O)(=O)N(Cc1nccn1C(F)F)[C@@H]3C2	3%	-0.36
Cc1cnc(C2CC2)n1CCNS(=O)(=O)c1ccccc1	-11%	1.48
Cc1cc(Br)cc(C(=O)NCCCNS(C)(=O)=O)c1	-16%	1.59
COc1cccc(Cn2c(C3CCCCC3)n[nH]c2=O)c1	-9%	0.94
CC1=CC[C@H]2CN(c3ccc4cc[nH]c4n3)C[C@H]2C1	-11%	1.44
Cn1cc(CCC(=O)N2CCCn3cc(-c4ccccc4)nc32)cn1	-5%	0.65
O=C1C[C@H](c2ccc(O)cc2)c2c(c(C(=O)O)cn2-c2ccccc2)N1	-8%	1.08
CCc1nc(C#N)cc(N[C@@H]2C[C@H](O)[C@H]2n2cc(C)cn2)n1	-9%	1.73
Cn1cnc2c1CCC1C2CCCN1CC(=O)NC1CC1 (stereo not given)	-13%	2.57
CC1(C)CN(C(=O)Nc2ccc(Oc3cccc(F)c3F)nc2)C[C@@H]1O	-7%	1.05
Cc1cc(CCNC(=O)c2ccncc2)on1	-3%	0.44
O=C1N[C@H](Cc2ccccc2)C(=O)N2CCN(S(=O)(=O)c3ccccc3F)C[C@H]12	-4%	0.45
CCCc1nc(-c2nc(-c3ccc4[nH]cnc4c3)no2)cs1	-3%	0.48
O=C1CCC[C@@H](C(=O)Nc2cc(F)cc(F)c2O)N1	-2%	0.32
COC(=O)c1c(C)nn(Cc2c(C)noc2C)c1C	-11%	2.02
CNC(=O)c1cc(NC(=O)N2CC=C(C)CC2)ccc1OC	-8%	1
CCCC(c1ccccn1)N(C)CC(O)COCc1cccs1 (stereo not given)	28%	-2.85
CC(=O)N1CC[C@@]2(O)CCN(Cc3ccc(C(F)(F)F)c(F)c3)C[C@H]2C1	-3%	0.52
O=C(CCc1cccnc1)N1CCC(C(F)(F)F)(C(F)(F)F)C1	-11%	1.09

SMILES	% Inhibition	Z score
Cc1nsc(NC2CCCCC2O)n1 (stereo not given)	4%	-0.33
Cc1ncsc1C(=O)N(Cc1cccnc1)Cc1ccco1	-7%	1.19
O=C(C[C@H]1CCCS(=O)(=O)C1)N1CC(Nc2ccc(F)cc2)C1	-8%	1.13
O[C@@H]1c2ccc(-c3cc(F)cc4cccnc34)cc2OC[C@H]1N1CCCC1	-14%	1.34
CCC(CC)(NCC(=O)NC1CC1)c1ccc(Cl)cc1	29%	0.09
CCCc1cc(NS(=O)(=O)Cc2ccc(C)c(F)c2)n[nH]1	4%	-0.6
COc1ccc(CCNC(=O)c2cc(N3CCc4cc(OC)c(OC)cc4C3)nc3ccccc23)cc1OC	5%	-0.56
CCNC(=O)N1CCCN(c2nc(CC(C)C)nc3onc(-c4cccc(C(F)(F)F)c4)c23)CC1	10%	-1.21
CN(Cc1ccc(C(F)(F)F)c(F)c1)Cc1ncon1	-8%	0.84
C[C@H](N)c1ccc(F)c(Br)c1	8%	-0.94
COC(=O)c1ccncc1C(=O)O[C@@H](C)C(=O)N(C)C	-14%	1.21
CC(C)[C@@H]1NC2(CCN(S(=O)(=O)c3ccccc3)CC2)N(Cc2ccc(F)cc2)C1=O	-20%	2.45
Cn1cnnc1C1CCN(c2cccc(F)c2C#N)CC1	-10%	1.27
O=C(c1cc2ccccc2o1)N1CCC[C@H](CN2CCCCCC2)C1	-12%	1.65
c1ccc(-c2nnn(Cc3nnc4ccccn34)n2)cc1	1%	-0.2
C1CCCC(NCC2(N3CCOCC3)CCCCC2)CC1	3%	-0.4
Cc1cc(N[C@H]2Cc3ccccc3[C@@H]2N)n2nccc2n1	15%	-2
C[C@H]1CCCN(C(=O)c2cnn(-c3ccccc3)n2)CC1	-7%	1.03
CCN(CC)S(=O)(=O)c1cccc(C(=O)Oc2ccc(-c3nnco3)cc2)c1	-13%	1.69
CS(=O)(=O)N1CCC(C(=O)Nc2ncn(Cc3ccc(Cl)cc3Cl)n2)CC1	-32%	3.78
Cn1cc(Cl)c(C(=O)Nc2ccc(Oc3nnn[nH]3)cc2)n1	-11%	1.57
CN(CC1CCCCO1)C(=O)CC1(c2ccccc2)CC(=O)N(Cc2cccs2)C1=O (stereo not given)	11%	-1.5

SMILES	% Inhibition	Z score
Cc1ccc(S(=O)(=O)N2CCC3(CC2)NCCN=C3NCc2ccc3c(c2)OCO3)c(C)c1	2%	-0.26
CC(C)(C)c1ccncc1CNC(=O)c1ncc[nH]1	-4%	0.47
CCc1ccc(-c2cc(-c3nc(CC(N)=O)nn3C(C)(C)C)[nH]n2)cc1	-15%	2.99
O=C1C2C3CC4C(OC(C42)N1C1CCCCC1)C3O (stereo not given)	-10%	1.24
CC(C)c1nnc(CN2CCCN(c3nc4ccccc4[nH]3)CC2)o1	0%	-0.03
CCNC(=O)N1CCc2nc(N3CCCCC3)nc(Oc3cccc(F)c3)c2C1	-3%	0.43
COc1nccc(C(=O)NCc2cc(C)c(O)c(C)c2)n1	-2%	0.35
CC(NC(=O)CN1CCCCC1Cn1cncn1)c1ccco1 (stereo not given)	-4%	0.44
Cc1ccc(-c2onc3c2CCCC3)cc1NC(=O)CC1CCCC1	-22%	3.16
O=C(C1CCN(CN2C(=O)NC3(CCCCC3)C2=O)CC1)N1CCCCCC1	-8%	1.17
O=C(COc1ccc2nncn2n1)N1CCC[C@@]2(C=Cc3ccccc3O2)CC1	1%	-0.07
O=C1CCC(CN2CCOC[C@H]2c2ncnn2Cc2ccccc2)CC1	-6%	0.94
C[C@H]1Cc2cc(C(=O)NCCN3CCCCC3=O)ccc2O1	-14%	1.59
CC[C@]1(C(=O)O)CCCN(Cc2[nH]nc(C)c2Cl)C1	-2%	0.22
Cc1nnc2c3ccccc3nc(N3CCN(C(=O)C(C)C)CC3)n12	-5%	1
CC(=O)Nc1nnc(CCOC[C@H](C)OCCc2nnc(NC(C)=O)s2)s1	-11%	2.09
CCOc1ccc(NC(=O)c2ccnc(N3CCC(C(=O)NCc4ccc(OC)cc4)CC3)c2)cc1	-14%	2.1
CCN(CC)C(=O)c1ccc(COc2ccc3c(c2)[C@H](c2ccccc2)N(C(=O)C(C)(C)C)CC3)o1	-17%	1.54
CCN1CCc2nc(-c3ccc(F)cc3)n(CC(=O)Nc3ccccc3OC)c(=O)c2C1	1%	-0.08
